Target: T1, CFP-NaV1.2 (rat)
T1 construct: Rat voltage-gated sodium channel NaV1.2 pore-forming α-subunit; also called rat NaV1.2 α-subunit; SCN2a; source: CHO-K1 cells, transfected (Lipofectamine 2000), in live cells; not shown: CFP, N-terminal, kept
Assay: single-particle two-colour TIRF microscopy with counting of photobleaching steps; live CHO cells co-expressing CFP-tagged channel, mCherry-SUMO1 and β1; ambient O2, hypoxia and recovery; room temperature
Conditions: partners not purified

B1: mCherry-SUMO1 (natural protein)
chain: not shown
notes: Human SUMO1, printed as SUMO1_(101): the 101-residue form, of which the mature form is SUMO1_(97) ending in Gly-Gly; The association with NaV1.2 is a covalent linkage (SUMOylation) to Lys38; also called m-SUMO1; mSUMO1; source: CHO-K1 cells, transfected, in live cells; not shown: mCherry, N-terminal, kept
- stoichiometry N: 1 SUMO1: NaV1.2

Reference: article PMC5283832, “SUMOylation of NaV1.2 channels mediates the early response to acute hypoxia in central neurons” (eLife, 2016)
